{"source": "patent US10022357B2", "about": "“Amyloid precursor protein MRNA blockers for treating Down syndrome and Alzheimer's disease” (THE GENERAL HOSPITAL CORPORATION, priority 2013, dated 2018)", "key": {"[1]": {"tested_on": "β-actin and α-synuclein (SNCA)", "test": "Western blot of β-actin and α-synuclein levels in SH-SY5Y cells (specificity)", "settings": "48 hours"}, "[2]": {"tested_on": "SH-SY5Y cells", "settings": "concentrations up to 10 μM", "method": "After reaching 80% confluence, a SH-SY5Y cells were 1:3 split onto two 12-well plates. After allowing the cells to settle for 24 hours, the medium was switched to a 1% FBS DMEM (Dulbecco's modified essential medium supplemented with 1% FBS and penicillin/streptomycin). Aβ Assays: Total Aβ amyloid levels were assessed as previously described (8) and AP-42 levels were measured by use of ELISA according to manufacturer's instructions (Covance Chemiluminescent BetaMark x-42 ELISA). LDH assay: The 1% FBS medium was recommended by the LDH Cytotoxicity Kit (Cayman Chemical, Ann Harbor, Mich.) to reduce interference as FBS also contains LDH. Cells were exposed to 10-fold increases in concentrations of JTR-009 reconstituted in IX PBS (0.1 nM-100 μM) compared to PBS as a control for 48 hours. Thus, eight wells on each 12-well were treated for 48-hour after which time 100 μL of supernatant was extracted from each of the treated wells and transferred to a 96-well plate. A LDH standard from the kit was also added to the plate."}, "[3]": {"tested_on": "SH-SY5Y cells", "test": "Calcein assay for iron uptake"}, "[4]": {"tested_on": "SH-SY5Y cells", "test": "MTT/MTS assay for cell viability", "format": "cell-based, human", "settings": "for Toxicity (MTT): SH-SY5Y cells", "method": "Cell viability was determined using MTT (thiazolyl blue tetrazolium) viability assays. Cells were grown in 96 well plates and treated as indicated above. […] The media was aspirated from the cells and 150 μL of solvent (0.1% Nondet P-40, 4 mM HCl in isopropanol) was added to each well and the plate shaken for 15 minutes."}, "[5]": {"tested_on": "APP", "test": "Western blot of APP levels in SH-SY5Y cells"}, "[6]": {"tested_on": "Aβ-42, SH-SY5Y cells", "test": "Chemiluminescent BetaMark x-42 ELISA of Aβ-42 in conditioned medium of SH-SY5Y cells", "format": "cell-based, human", "settings": "10 μM, 72 hour treatment", "method": "Aβ-42 peptide is the critical APP derived peptide to trigger the aggregation of amyloid in both AD and DS and is critically linked to tau induced neurotoxicity. […] In this representative experiment, a chemiluminescent BetaMark x-42 ELISA assay for Aβ-42 measurement was employed (Covance, inc). The assays were carried out according to the manufacture's conditions such that the standard curve was linear and the measured points were within the ‘standards’ range."}, "[7]": {"tested_on": "APP and amyloid-beta", "test": "Suppression of APP and Aβ levels in SH-SY5Y cells and primary neurons (Table 2 summary)", "format": "cell-based", "settings": "read-out: APP and amyloid-beta Inhibition (IC50)"}, "[8]": {"tested_on": "total Aβ levels, SH-SY5Y cells", "test": "ELISA of total Aβ in conditioned medium of SH-SY5Y cells", "format": "cell-based, human"}}}
{"smiles": "Cc1ccc2[nH]c(-c3ccc(N)cc3)nc2c1", "note": "[JTR-009, 4-(5-methyl-1H-benzimidazol-2yl) aniline]", "values": [{"measurement": "effect on β-actin and α-synuclein levels", "setting": "[1]", "result": "maintaining"}, {"measurement": "cell death by LDH cytotoxicity assay", "setting": "[2]", "result": "without causing any significant cell death"}, {"measurement": "inhibition at 10 µM", "setting": "[3]; Homo sapiens, SH-SY5Y, read-out: inhibition of calcein staining (normalized iron uptake)", "result": "-1 ± 13", "unit": "%"}, {"measurement": "Toxicity (MTT)", "setting": "[4]", "result": 100, "unit": "µM"}, {"measurement": "concentrations at which cell toxicity was displayed", "setting": "[4]; SH-SY5Y cells and primary neurons", "result": "> 30", "unit": "µM"}, {"measurement": "cellular viability compared to controls", "setting": "[4]; concentrations as high as 100 μM", "result": 80, "unit": "%"}, {"measurement": "lowest dose that limited APP production", "setting": "[5]; 48 hours", "result": 100, "unit": "nM"}, {"measurement": "concentrations that selectively reduced neural APP production", "setting": "[5]; Western blotting", "result": "picomolar concentrations"}, {"measurement": "reduction of Aβ-42 secretion", "setting": "[6]", "result": "more than two fold"}, {"measurement": "IC50", "setting": "[7]", "result": 0.1, "unit": "µM"}, {"measurement": "fold inhibition of total Aβ peptide levels", "setting": "[8]; 1 μM, 48 hours, SH-SY5Y conditioned medium, N=5", "result": 3, "unit": "fold"}, {"measurement": "lowest concentration that inhibited secreted Aβ", "setting": "[8]; SH-SY5Y, 72-hour treatment", "result": 10, "unit": "nM"}]}
{"smiles": "CN1CC[C@]2(C)c3cc(OC(=O)Nc4ccccc4)ccc3N(C)[C@H]12", "note": "[posiphen, reference compound]", "values": [{"measurement": "effect on β-actin and α-synuclein levels", "setting": "[1]", "result": "limited expression of APP but also that of (β-actin and α-synuclein"}, {"measurement": "Toxicity (MTT)", "setting": "[4]", "result": 100, "unit": "µM"}]}
{"smiles": "O=C(O)CN(CCN(CC(=O)O)CC(=O)O)CCN(CC(=O)O)CC(=O)O", "note": "[DTPA, reference compound]", "values": [{"measurement": "inhibition of calcein staining (normalized iron uptake)", "setting": "[3]; JTR-009 10 μM, DTPA blocking control", "result": "100±8", "unit": "%"}]}
{"smiles": "Cc1ccc(C(=O)Cn2c3c(sc2=N)CCCC3)cc1", "note": "[PFTα, pifithrin-alpha, reference compound]", "values": [{"measurement": "effect on β-actin and α-synuclein levels", "setting": "[1]", "result": "co-reduced αsyn levels"}, {"measurement": "inhibition of neural APP, potency compared with JTR-009", "setting": "[5]; 48 hours", "result": "same potency as JTR-009"}]}
